Measured values reported in patent US20220220204A1 (published 2022).
Read-outs that look alike come from different tables or passages of the source.

Assays:
Assay in all cases: FACS binding
[1] = molecular target: T1, LAG-3 expressed on CHO-K1 cells (UniProt P18627 23-525)
T1 chain: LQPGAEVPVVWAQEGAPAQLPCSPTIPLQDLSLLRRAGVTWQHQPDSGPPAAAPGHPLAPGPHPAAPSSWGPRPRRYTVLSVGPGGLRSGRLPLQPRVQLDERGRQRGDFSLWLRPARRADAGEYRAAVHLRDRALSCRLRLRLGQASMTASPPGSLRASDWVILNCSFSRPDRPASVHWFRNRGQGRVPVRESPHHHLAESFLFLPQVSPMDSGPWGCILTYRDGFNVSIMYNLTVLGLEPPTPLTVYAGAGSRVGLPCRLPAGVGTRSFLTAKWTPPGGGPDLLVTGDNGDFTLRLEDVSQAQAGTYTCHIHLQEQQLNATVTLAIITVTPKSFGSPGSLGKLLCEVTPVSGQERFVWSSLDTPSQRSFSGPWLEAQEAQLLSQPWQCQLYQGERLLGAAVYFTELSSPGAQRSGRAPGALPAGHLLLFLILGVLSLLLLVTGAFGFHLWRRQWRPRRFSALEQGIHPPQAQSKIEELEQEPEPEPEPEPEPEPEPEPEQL

[2] = molecular target: T1, LAG-3 expressed on CHO-K1 cells
[3] = molecular target: PD-L1 expressed on CHO-K1 cells (UniProt Q9NZQ7)
Chain of UniProt Q9NZQ7 (Q9NZQ7 19-290): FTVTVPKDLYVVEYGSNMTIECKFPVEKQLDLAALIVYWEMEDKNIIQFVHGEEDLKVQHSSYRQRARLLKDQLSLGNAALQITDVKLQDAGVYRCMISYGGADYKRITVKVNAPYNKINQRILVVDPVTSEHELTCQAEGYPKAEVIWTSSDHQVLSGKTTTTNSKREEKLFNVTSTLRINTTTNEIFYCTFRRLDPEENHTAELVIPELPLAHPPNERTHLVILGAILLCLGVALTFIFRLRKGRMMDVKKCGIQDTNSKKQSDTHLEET

B1: sdAb-LAG3-IgG4PE (Fc fusion)
chain: EVQLVESGGGLVQPGGSLRLSCAASGYTVSSYCMGWFRQAPGKGREGVSAIDSDGSVSYADSVKGRFTISKDNSKNTLYLQMNSLRAEDTAVYFCAADLCWVDQDQGEYNTWGQGTLVTVSS[letters of human IgG4 Fc with changes not shown]
For B1, the EC50 [1] was 0.302 nM, the EC50 [2] was 0.252 nM and the EC50 [3] was roughly 0.00171 nM.
